Data published in patent US6534546B1 (Chugai Seiyaku Kabushiki Kaisha, priority 1994, dated 2003).
Structures can show the parent of a compound that is named as a salt.

Legend:
N-cNOS (Type 1) [1] = biological target: T1, N-cNOS (Type 1) (Rattus norvegicus, UniProt P29476); conditions: for N-cNOS inhibitory potency compared with the existing NOS inhibitors (L-MIN) / selectivity for N-cNOS compared to E-cNOS, compared with the existing NOS inhibitors (L-EIN): conclusion from Tables 49, 50 and 51; for Ratio of IC50 values E-cNOS/N-cNOS / Ratio of IC50 values iNOS/N-cNOS: index of selectivity
N-cNOS (Type 1) [2] = biological target: T1, N-cNOS (Type 1); experiment: biochemical

Structure (SMILES) | N-cNOS inhibitory potency compared with the existing NOS inhibitors (L-MIN) (N-cNOS (Type 1) [1]) | selectivity for N-cNOS compared to E-cNOS, compared with the existing NOS inhibitors (L-EIN) (N-cNOS (Type 1) [1]) | Ratio of IC50 values E-cNOS/N-cNOS (N-cNOS (Type 1) [1]) | IC50 (N-cNOS (Type 1) [2]) | Ratio of IC50 values iNOS/N-cNOS (N-cNOS (Type 1) [1])
CCSC(=N)Nc1cccc(C(C)N)c1.Cl.Cl (stereo not shown) [Example 175, N-(1-(3-(S-ethylisothioureido)phenyl)ethyl)amine dihydrochloride] | more potent in inhibiting N-cNOS than L-MIN | more selective inhibitory effect on N-cNOS than L-EIN | 50.0 | 4 nM | –
CCSC(=N)Nc1cccc(C(N)CC)c1.Cl.Cl (stereo not shown) [Example 177, N-(1-(3-(S-ethylisothioureido)phenyl)propyl)amine dihydrochloride] | – | – | 44.0 | 11.6 nM | –
CCSC(=N)Nc1ccc(C(C)(C)CN)cc1.Cl.Cl [Example 185, N-(2-(4-(S-ethylisothioureido)phenyl)-2-methylpropyl)amine dihydrochloride] | – | – | 10.6 | 299 nM | –
CCSC(=N)Nc1ccc(C(CN)C(=O)OC)cc1.Cl.Cl (stereo not shown) [Example 226, 3-amino-2-(4-(S-ethylisothioureido)phenyl)propionic acid methyl ester dihydrochloride] | – | – | 24.8 | 57.9 nM | –
CCN=C(N)Nc1cccc(C2(N)CCCC2)c1 [Example 236, N-(1-(3-(N′-ethylguanidino)phenyl)cyclopentyl)amine dihydrochloride] | – | – | 5.7 | 56.8 nM | –
CCN=C(N)Nc1cccc(C2(N)CCC2)c1.Cl.Cl [Example 238, N-(1-(3-(N′-ethylguanidino)phenyl)cyclobutyl)amine dihydrochloride] | – | – | 18.2 | 63.9 nM | –
CCN=C(N)Nc1ccc(N(C)C)c(CN)c1.Cl.Cl.Cl [Example 267, N-(2-dimethylamino-5-(N′-ethylguanidino)phenylmethyl)amine trihydrochloride] | – | more selective inhibitory effect on N-cNOS than L-EIN | 502.8 | 99.6 nM | 48.1
CCSC(=N)Nc1ccc(N(C)C)c(CN)c1.Cl.Cl.Cl [Example 270, N-(2-dimethylamino-5-(S-ethylisothioureido)phenylmethyl)amine trihydrochloride] | more potent in inhibiting N-cNOS than L-MIN | more selective inhibitory effect on N-cNOS than L-EIN | 834.0 | 4.3 nM | 1053.2
CN(C)c1ccc(NC(N)=N[N+](=O)[O-])cc1CN.Cl.Cl [Example 281, N-(2-dimethylamino-5-(N′-nitroguanidino)phenylmethyl)amine dihydrochloride] | – | – | 15.0 | 108 nM | –
CCN=C(N)Nc1ccc(N(C)CC)c(CN)c1.Cl.Cl.Cl [Example 285, N-(5-(N′-ethylguanidino)-2-(N-ethyl-N-methyl-amino)phenylmethyl)amine trihydrochloride] | – | – | 36.7 | 199 nM | –
CCSC(=N)Nc1ccc(N(C)CC)c(CN)c1.Cl.Cl.Cl [Example 288, N-(5-(S-ethylisothioureido)-2-(N-ethyl-N-methylamino)phenylmethyl)amine trihydrochloride] | – | – | 63.5 | 19.9 nM | –
CCSC(=N)Nc1ccc(OC)c(CN)c1OC.Cl.Cl [Example 298, N-(2,6-dimethoxy-3-(S-ethylisothioureido)phenylmethyl)amine dihydrochloride] | – | more selective inhibitory effect on N-cNOS than L-EIN | 113.8 | 36.4 nM | –
CCN=C(N)Nc1cccc(C(C)(C)N)c1.Cl.Cl [Example 300, N-(1-(3-(N′-ethylguanidino)phenyl)-1-methylethyl) amine dihydrochloride] | – | – | 7.0 | 69.8 nM | –
CCN(C)C(=N)Nc1cccc(CN)c1 [Example 305, N-(3-(N′-ethyl-N′-methylguanidino)phenylmethyl)amine dihydrochloride] | – | – | 31.7 | 53.9 nM | –
CCSC(=N)Nc1ccc(F)c(CN)c1.Cl.Cl [Example 317, N-(5-(S-ethylisothioureido)-2-fluorophenylmethyl)amine dihydrochloride] | – | – | 19.6 | 12.2 nM | –
CCOc1ccc(NC(=N)SCC)cc1CN.Cl.Cl [Example 324, N-(2-ethoxy-5-(S-ethylisothioureido)phenylmethyl) amine dihydrochloride] | more potent in inhibiting N-cNOS than L-MIN | more selective inhibitory effect on N-cNOS than L-EIN | 480.3 | 4.8 nM | 1818.4
CCSC(=N)Nc1ccc(OCc2ccccc2)c(CN)c1.Cl.Cl [Example 337, N-(2-benzyloxy-5-(S-ethylisothioureido)phenylmethyl)amine dihydrochloride] | – | more selective inhibitory effect on N-cNOS than L-EIN | 116.1 | 44.8 nM | 345.4
Cl.NCc1cc(NC(N)=N[N+](=O)[O-])ccc1OCc1ccccc1 [Example 341, N-(2-benzyloxy-5-(N′-nitroguanidino)phenylmethyl)amine hydrochloride] | – | – | 5.5 | 160 nM | –
CCSC(=N)Nc1ccc(OC)c(C(C)(C)N)c1 [Example 350, N-(1-(5-(S-ethylisothioureido)-2-methoxyphenyl)-1-methylethyl)amine] | – | more selective inhibitory effect on N-cNOS than L-EIN | 149.9 | 106 nM | 552.5
CCSC(=N)Nc1cccc(CNN)c1.Cl.Cl.Cl [Example 355, 3-(S-ethylisothioureido)phenylmethylhydrazine trihydrochloride] | – | – | 14.4 | 46 nM | –
CN=C(N)Nc1cccc(CN)c1.Cl.Cl [Example 367, N-(3-(N′-methylguanidino)phenylmethyl)amine dihydrochloride] | – | – | 19.2 | 193 nM | –
CCSC(=N)Nc1cccc(CN(C)C)c1 [Example 372, N-(3-(S-ethylisothioureido)phenylmethyl)dimethylamine] | – | – | 15.3 | 23.6 nM | –
CCN=C(N)Nc1cccc(CN(C)C)c1.Cl.Cl [Example 374, N-(3-(N′-ethylguanidino)phenylmethyl)dimethylamine dihydrochloride] | – | – | 16.7 | 77.1 nM | –
CCN=C(N)Nc1cccc(CNC)c1.Cl.Cl [Example 376, N-(3-(N′-ethylguanidino)phenylmethyl)methylamine dihydrochloride] | – | – | 15.9 | 21.3 nM | –
CCSC(=N)Nc1cccc(CNC)c1C.Cl.Cl [Example 411, N-(3-(S-ethylisothioureido)-2-methylphenylmethyl)methylamine dihydrochloride] | – | – | 57.8 | 5.9 nM | –
CCSC(=N)Nc1ccc(NCc2ccccc2)c(CN)c1.Cl.Cl.Cl [Example 438, N-(2-benzylamino-5-(S-ethylisothioureido)phenylmethyl)amine trihydrochloride] | – | more selective inhibitory effect on N-cNOS than L-EIN | 168.2 | 41.3 nM | –
CCSC(=N)Nc1ccc(NC)c(CN)c1.Cl.Cl.Cl [Example 452, N-(5-(S-ethylisothioureido)-2-methylaminophenylmethyl)amine trihydrochloride] | – | more selective inhibitory effect on N-cNOS than L-EIN | 567.5 | 6.4 nM | 1088.0
CCNc1ccc(NC(=N)SCC)cc1CN(C(=O)OC(C)(C)C)C(=O)OC(C)(C)C [Example 458, N-(2-ethylamino-5-(S-ethylisothioureido)phenylmethyl)iminodicarboxylic acid di-t-butyl ester] | – | more selective inhibitory effect on N-cNOS than L-EIN | 488.2 | 8.4 nM | –
CCN=C(N)Nc1ccc(CCN)cc1.Cl.Cl [Example 528, N-(2-(4-(N′-ethylguanidino)phenyl)ethyl)amine dihydrochloride] | – | – | 19.1 | 22.8 nM | –
CCN=C(N)Nc1cccc(CN)c1C.Cl.Cl [Example 533, N-(3-(N′-ethylguanidino)-2-methylphenylmethyl)amine dihydrochloride] | – | – | 81.8 | 46.1 nM | –
